# The other results are listed elsewhere or left out. One pool of 16,384 single-stranded DNAs met each Rep nickase domain in vitro for 1 h at 37 °C with 3 µM enzyme; only the middle of the 90-letter strands is printed. The score is log2 (uncut reads / reads without enzyme); strong cutting gives strongly negative numbers. There is no active / inactive call. Reads are scaled to the total; uncut strands gain when others are lost, and binding without cutting may add a little.
# What was measured:
# Assay in all cases: uncleaved DNA left, log2 of reads against the no-enzyme library (log2 ratio); higher = less cleavage (more negative = more Rep cleavage of the k-mer); sequences stand for … in CTCGTCCG…ACCGGAGA
# [1] = tested on: T1, Rep nickase domain of Muscovy duck circovirus
# T1 sequence (residues 1-111 of Rep, tag left off): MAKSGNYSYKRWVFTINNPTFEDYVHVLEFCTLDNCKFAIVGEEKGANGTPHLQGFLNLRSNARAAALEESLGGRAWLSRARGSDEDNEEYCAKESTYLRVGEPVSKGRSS
# Procedure: (§1)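 A pool of 90-nt single-stranded DNAs with seven random bases just before the constant AC of the nick site (name = the seven bases) was cut by 3 µM recombinant His6-SUMO-tagged Rep nickase domain (300 nM DNA, 50 mM HEPES pH 8.0, 50 mM NaCl, 1 mM MnCl2, 1 h, 37 °C, three replicates). Uncut DNA was amplified and sequenced.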
# [2] = tested on: T2, Rep nickase domain of banana bunchy top virus
# T2 sequence (residues 1-94 of Rep, tag left off): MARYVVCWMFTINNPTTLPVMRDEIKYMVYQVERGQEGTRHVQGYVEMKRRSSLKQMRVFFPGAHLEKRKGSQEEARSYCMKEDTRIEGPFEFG
# Procedure: as §1
# [3] = tested on: T3, Rep nickase domain of cabbage leaf curl virus
# T3 sequence (residues 1-116 of Rep, tag left off): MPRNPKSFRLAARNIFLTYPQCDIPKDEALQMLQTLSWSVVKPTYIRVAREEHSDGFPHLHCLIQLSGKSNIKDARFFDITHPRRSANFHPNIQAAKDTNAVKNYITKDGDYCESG
# Procedure: as §1
# [4] = tested on: T4, Rep nickase domain of chickpea chlorotic dwarf virus
# T4 sequence (residues 1-124 of Rep, tag left off): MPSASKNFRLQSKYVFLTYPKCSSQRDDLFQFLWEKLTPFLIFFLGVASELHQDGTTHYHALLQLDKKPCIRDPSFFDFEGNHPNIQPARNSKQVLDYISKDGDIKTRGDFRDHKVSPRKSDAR
# Procedure: as §1
# [5] = tested on: T5, Rep nickase domain of faba bean necrotic yellows virus
# T5 sequence (residues 1-98 of Rep, tag left off): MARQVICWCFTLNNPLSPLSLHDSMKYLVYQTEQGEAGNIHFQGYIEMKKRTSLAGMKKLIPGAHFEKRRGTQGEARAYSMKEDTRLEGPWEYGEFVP
# Procedure: as §1
# [6] = tested on: T6, Rep nickase domain of maize striate mosaic virus
# T6 sequence (residues 1-117 of Rep, tag left off): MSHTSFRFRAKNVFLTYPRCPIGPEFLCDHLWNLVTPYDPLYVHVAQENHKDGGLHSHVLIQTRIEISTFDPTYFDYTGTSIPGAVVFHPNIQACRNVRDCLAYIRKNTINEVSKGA
# Procedure: as §1
# [7] = tested on: T7, Rep nickase domain of porcine circovirus 2
# T7 sequence (residues 2-116 of Rep, tag left off): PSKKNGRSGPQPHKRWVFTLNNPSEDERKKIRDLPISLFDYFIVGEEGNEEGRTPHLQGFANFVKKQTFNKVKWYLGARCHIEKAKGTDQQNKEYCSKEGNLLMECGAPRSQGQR
# Procedure: as §1
# [8] = tested on: T8, Rep nickase domain of tomato golden mosaic virus
# T8 sequence (residues 1-124 of Rep, tag left off): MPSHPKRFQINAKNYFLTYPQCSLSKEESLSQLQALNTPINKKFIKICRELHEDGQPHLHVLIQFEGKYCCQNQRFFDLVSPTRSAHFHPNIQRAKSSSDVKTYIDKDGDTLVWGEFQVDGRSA
# Procedure: as §1
# [9] = tested on: T9, Rep nickase domain of tomato yellow leaf curl virus
# T9 sequence (residues 1-136 of Rep, tag left off): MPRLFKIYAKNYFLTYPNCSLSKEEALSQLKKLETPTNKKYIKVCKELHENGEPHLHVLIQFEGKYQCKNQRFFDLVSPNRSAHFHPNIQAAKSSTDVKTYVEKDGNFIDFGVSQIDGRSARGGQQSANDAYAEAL
# Procedure: as §1
# [10] = tested on: T10, Rep nickase domain of wheat dwarf virus
# T10 sequence (residues 1-137 of Rep, tag left off): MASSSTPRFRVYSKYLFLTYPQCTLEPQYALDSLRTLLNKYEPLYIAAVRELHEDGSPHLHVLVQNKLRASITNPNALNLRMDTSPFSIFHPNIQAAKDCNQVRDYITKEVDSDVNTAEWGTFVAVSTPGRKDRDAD
# Procedure: as §1
Sequence,uncleaved DNA left (log2) [1],uncleaved DNA left (log2) [2],uncleaved DNA left (log2) [3],uncleaved DNA left (log2) [4],uncleaved DNA left (log2) [5],uncleaved DNA left (log2) [6],uncleaved DNA left (log2) [7],uncleaved DNA left (log2) [8],uncleaved DNA left (log2) [9],uncleaved DNA left (log2) [10]
TTAGTCC,0.0563,-0.0331,0.343,-0.0508,0.0861,0.449,-0.0417,0.0435,0.0449,0.123
TTGTCAT,-0.0406,0.0809,0.241,-0.0862,-0.0775,-0.0538,-0.967,-0.0161,0.188,0.141
TTCTTCG,-0.0387,-0.103,-0.904,-0.27,-0.123,-1.29,-0.0223,-0.236,-0.214,-0.245
CCGAATA,0.103,-0.0212,0.128,-0.854,0.163,-0.0738,0.0375,0.0911,0.0877,0.0834
CGCGTAC,0.118,-0.0709,-0.13,-0.322,0.0688,-0.339,-0.0399,-0.116,-0.095,-0.0426
CCGCGGA,0.0339,-0.193,-0.271,-0.223,-0.135,-0.512,-0.0348,-0.131,-0.00187,-0.231
TTAGTAT,0.035,-0.014,0.274,-0.238,0.0753,0.419,0.0793,0.0703,0.0859,0.0431
GCCACGG,0.0315,0.00532,0.559,1.46,-0.0346,1.92,0.056,0.0637,-0.191,-0.0394
TGACGCG,-0.106,-0.134,-0.903,0.1,-0.0357,-0.703,-0.0611,-0.142,-0.121,-0.206
GTACACC,0.0185,0.105,0.333,0.785,0.00431,1.49,-0.0154,-0.0219,0.0747,0.144
TGCTAGG,0.0791,0.126,0.448,1.08,-0.00117,1.26,0.0642,0.123,-0.0723,0.134
AATCTTG,0.0137,-0.0701,-0.422,-1.83,-0.0543,-0.941,-0.0663,0.0478,-0.035,-0.0928
ACTGAGA,0.114,0.149,-0.103,0.276,0.0467,-0.616,0.176,0.125,0.194,0.178
GTGGGCC,0.0544,0.0595,0.48,1.09,-0.0403,1.93,0.134,0.0745,-0.0608,-0.00548
GATTGAC,-0.0318,-0.0749,0.197,0.682,-0.0621,0.336,0.132,-0.073,-0.0402,0.0442
TGGGCAA,-0.00413,0.0477,0.78,2.02,0.0073,2.16,0.158,-0.0334,0.0442,0.159
ACCTCTA,-0.0234,-0.0869,-0.312,-1.27,-0.000201,-0.607,-0.0363,0.0824,-0.144,0.00933
TTAGGAA,-0.0722,0.0157,0.33,1.17,-0.00556,1.42,0.15,0.0947,-0.00299,0.00055
TACCTGG,0.132,0.0893,0.232,0.332,0.0724,0.00523,0.0574,0.177,0.0966,0.23
ATGGAAG,-0.0689,-0.0339,-0.667,-0.479,-0.0291,-1.03,0.144,-0.0665,-0.12,-0.0516
ACTTAGT,-0.715,-0.171,-0.37,-0.802,-0.0441,-0.911,-3.16,0.101,0.0649,-0.0615
CCTGAAG,-0.0298,-0.0182,-0.77,-0.288,0.0792,-0.888,0.108,0.0425,-0.00935,-0.0315
CTCTCAC,0.0797,-0.0543,0.0383,-0.379,0.135,-0.588,0.0381,-0.134,-0.0159,0.102
CTCTGCT,-0.695,-0.168,-0.727,-1.44,-0.0832,-1.07,-2.32,-0.223,-0.113,-0.203
CATCCAT,-0.0669,-0.0507,-0.175,-1.55,-0.132,-0.645,-0.112,-0.0536,0.0221,0.125
TGTATGG,0.134,0.0672,0.436,0.864,0.00449,0.855,0.185,0.0868,-0.0423,0.0588
TGTTACC,-3.19,-0.387,-2.45,-2.24,-2.22,0.0345,-3.26,-2.43,-0.0713,-2.58
GGACTAT,0.183,0.158,0.957,2,0.0431,2.29,0.252,0.115,0.0875,0.309
GGTCTTC,0.0542,0.124,0.437,1.1,-0.0647,1.76,0.0051,-0.0287,0.122,0.122
TCCGAGG,0.0778,0.038,0.578,1.32,0.0175,1.72,0.179,0.137,-0.0919,-0.0173
